Experimental data published in paper PMC7099082.
No constants are given. Whether binding was seen depends on the method and setting. Binding seen in cells or lysates may run through a third protein. Some entries that bind do so weakly or less than the wild type. Where a sequence is shown, tags or fusion partners need not be part of it. Blank lines part the entries; values can stand above or below the molecule they belong to.

Amino acid sequences for entries named in this document (tags omitted).
UniProt Q9SN12: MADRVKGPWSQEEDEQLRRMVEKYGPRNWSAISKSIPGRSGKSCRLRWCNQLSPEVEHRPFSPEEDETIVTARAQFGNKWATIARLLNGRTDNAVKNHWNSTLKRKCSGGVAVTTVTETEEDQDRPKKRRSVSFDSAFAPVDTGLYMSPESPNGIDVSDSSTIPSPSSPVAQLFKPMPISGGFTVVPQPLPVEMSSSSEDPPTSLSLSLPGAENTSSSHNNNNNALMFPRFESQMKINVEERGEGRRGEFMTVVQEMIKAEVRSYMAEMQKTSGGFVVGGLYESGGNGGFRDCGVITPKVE

How the values were obtained:
[1] = molecular target: T1, SnRK1α1 fused to the N-terminal or C-terminal half of YFP (BiFC) (Arabidopsis thaliana) (UniProt Q38997); experiment: split reporter; BiFC with split YFP in Nicotiana benthamiana leaves infiltrated with Agrobacterium GV2260; fluorescence seen after 72 h by confocal microscopy; both halves of YFP on each partner
T1 sequence: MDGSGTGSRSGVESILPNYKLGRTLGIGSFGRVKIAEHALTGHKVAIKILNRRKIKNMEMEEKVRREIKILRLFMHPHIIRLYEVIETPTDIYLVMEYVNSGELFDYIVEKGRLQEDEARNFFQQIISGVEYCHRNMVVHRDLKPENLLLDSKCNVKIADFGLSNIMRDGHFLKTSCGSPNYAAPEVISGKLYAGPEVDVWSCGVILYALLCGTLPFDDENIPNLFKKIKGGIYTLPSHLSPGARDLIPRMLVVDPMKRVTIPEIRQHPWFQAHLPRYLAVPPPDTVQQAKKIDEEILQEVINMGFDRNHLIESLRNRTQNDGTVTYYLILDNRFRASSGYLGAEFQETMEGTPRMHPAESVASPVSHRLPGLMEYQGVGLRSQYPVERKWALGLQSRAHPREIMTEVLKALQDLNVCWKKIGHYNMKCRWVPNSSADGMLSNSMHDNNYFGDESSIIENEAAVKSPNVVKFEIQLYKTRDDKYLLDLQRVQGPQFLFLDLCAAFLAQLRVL

[2] = molecular target: T2, SnRK1α2 fused to the N-terminal or C-terminal half of YFP (BiFC) (Arabidopsis thaliana) (UniProt P92958); experiment: as above
T2 sequence: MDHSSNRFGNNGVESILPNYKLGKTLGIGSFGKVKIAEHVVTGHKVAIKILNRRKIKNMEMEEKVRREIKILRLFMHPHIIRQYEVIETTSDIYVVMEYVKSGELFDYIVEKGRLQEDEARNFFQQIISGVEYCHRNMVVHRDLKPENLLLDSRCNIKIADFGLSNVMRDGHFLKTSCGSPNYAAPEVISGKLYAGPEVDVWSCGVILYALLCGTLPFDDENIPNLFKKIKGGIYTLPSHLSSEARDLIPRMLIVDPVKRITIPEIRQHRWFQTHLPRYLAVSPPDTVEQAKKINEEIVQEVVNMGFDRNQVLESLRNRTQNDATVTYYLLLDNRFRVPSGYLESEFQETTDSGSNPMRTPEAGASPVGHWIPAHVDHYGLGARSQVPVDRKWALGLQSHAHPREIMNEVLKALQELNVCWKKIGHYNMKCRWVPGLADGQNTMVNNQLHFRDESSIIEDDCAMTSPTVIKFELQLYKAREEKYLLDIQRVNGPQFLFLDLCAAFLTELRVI

binding [1]: binds
binding [2]: no binding
Molecule: MYB77 fused to the N-terminal or C-terminal half of YFP (BiFC) (from UniProt Q9SN12 1-301)

binding [1]: no binding
binding [2]: no binding
B1: ANAC055 fused to the N-terminal or C-terminal half of YFP (BiFC) (protein, UniProt Q9LDY8 1-317)
chain: MGLQELDPLAQLSLPPGFRFYPTDEELMVEYLCRKAAGHDFSLQLIAEIDLYKFDPWVLPSKALFGEKEWYFFSPRDRKYPNGSRPNRVAGSGYWKATGTDKVISTEGRRVGIKKALVFYIGKAPKGTKTNWIMHEYRLIEPSRRNGSTKLDDWVLCRIYKKQTSAQKQAYNNLMTSGREYSNNGSSTSSSSHQYDDVLESLHEIDNRSLGFAAGSSNALPHSHRPVLTNHKTGFQGLAREPSFDWANLIGQNSVPELGLSHNVPSIRYGDGGTQQQTEGIPRFNNNSDVSANQGFSVDPVNGFGYSGQQSSGFGFI

binding [1]: binds
binding [2]: binds
B2: AFP2 fused to the N-terminal or C-terminal half of YFP (BiFC) (protein, UniProt Q9LMX5 1-348)
chain: MGEASRQQRAWNREMTVTTNLSLDIDKYPRDLLRGFMSENGGGRVFHGGETNCDDESTIELNLGLSLGGRFGVDKTPRKLKRSSSVLDTVPFNDSTVAEPENYTVGLERTTSLPAEMEEEWRKRKEMQSLRRMEAKRRRCEKQSFRVGNSDDQTVSFENERWVTASKSGFLQRHLVSSNRQVCGVDSDGGGATGGGSSSSLSELDNKNQQGSSNSCNDERSPKIVAGCSSNSGSQGTERPSVTRANKVNENENEKRVRSEDSVDRKGKGMATSTGLVDMPCVFTKGDGPNGRRVDGILYKYGKGEEVRIMCICHGSFLTPAEFVKHGGGGDVDRPLRHIVVNTSSSTF

binding [1]: binds
binding [2]: binds
B3: SnRK3.22 fused to the N-terminal or C-terminal half of YFP (BiFC) (protein, UniProt O22932 1-435)
chain: MPEIEIAAGSGDNNDALFGKYELGKLLGCGAFAKVFHARDRRTGQSVAVKILNKKKLLTNPALANNIKREISIMRRLSHPNIVKLHEVMATKSKIFFAMEFVKGGELFNKISKHGRLSEDLSRRYFQQLISAVGYCHARGVYHRDLKPENLLIDENGNLKVSDFGLSALTDQIRPDGLLHTLCGTPAYVAPEILSKKGYEGAKVDVWSCGIVLFVLVAGYLPFNDPNVMNMYKKIYKGEYRFPRWMSPDLKRFVSRLLDINPETRITIDEILKDPWFVRGGFKQIKFHDDEIEDQKVESSLEAVKSLNAFDLISYSSGLDLSGLFAGCSNSSGESERFLSEKSPEMLAEEVEGFAREENLRMKKKKEEEYGFEMEGQNGKFGIGICISRLNDLLVVVEARRRGGDGDCYKEMWNGKLRVQLIRVCDQTSSTNAAI
